Out of some 310,000 compounds screened, about 14,000 (4.5%) showed an effect of 50% or more. Effects have a minus sign here. The list shows a part of the results.
Target: human ether-à-go-go-related gene (hERG) potassium channel (human, UniProt Q12809)
Assay: primary screen, population patch clamp on CHO cells stably expressing hERG
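Also: peak tail current of the secondary pulse compared with the same well before compound.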

Sequence of human ether-à-go-go-related gene (hERG) potassium channel (Q12809 whole entry, looked up): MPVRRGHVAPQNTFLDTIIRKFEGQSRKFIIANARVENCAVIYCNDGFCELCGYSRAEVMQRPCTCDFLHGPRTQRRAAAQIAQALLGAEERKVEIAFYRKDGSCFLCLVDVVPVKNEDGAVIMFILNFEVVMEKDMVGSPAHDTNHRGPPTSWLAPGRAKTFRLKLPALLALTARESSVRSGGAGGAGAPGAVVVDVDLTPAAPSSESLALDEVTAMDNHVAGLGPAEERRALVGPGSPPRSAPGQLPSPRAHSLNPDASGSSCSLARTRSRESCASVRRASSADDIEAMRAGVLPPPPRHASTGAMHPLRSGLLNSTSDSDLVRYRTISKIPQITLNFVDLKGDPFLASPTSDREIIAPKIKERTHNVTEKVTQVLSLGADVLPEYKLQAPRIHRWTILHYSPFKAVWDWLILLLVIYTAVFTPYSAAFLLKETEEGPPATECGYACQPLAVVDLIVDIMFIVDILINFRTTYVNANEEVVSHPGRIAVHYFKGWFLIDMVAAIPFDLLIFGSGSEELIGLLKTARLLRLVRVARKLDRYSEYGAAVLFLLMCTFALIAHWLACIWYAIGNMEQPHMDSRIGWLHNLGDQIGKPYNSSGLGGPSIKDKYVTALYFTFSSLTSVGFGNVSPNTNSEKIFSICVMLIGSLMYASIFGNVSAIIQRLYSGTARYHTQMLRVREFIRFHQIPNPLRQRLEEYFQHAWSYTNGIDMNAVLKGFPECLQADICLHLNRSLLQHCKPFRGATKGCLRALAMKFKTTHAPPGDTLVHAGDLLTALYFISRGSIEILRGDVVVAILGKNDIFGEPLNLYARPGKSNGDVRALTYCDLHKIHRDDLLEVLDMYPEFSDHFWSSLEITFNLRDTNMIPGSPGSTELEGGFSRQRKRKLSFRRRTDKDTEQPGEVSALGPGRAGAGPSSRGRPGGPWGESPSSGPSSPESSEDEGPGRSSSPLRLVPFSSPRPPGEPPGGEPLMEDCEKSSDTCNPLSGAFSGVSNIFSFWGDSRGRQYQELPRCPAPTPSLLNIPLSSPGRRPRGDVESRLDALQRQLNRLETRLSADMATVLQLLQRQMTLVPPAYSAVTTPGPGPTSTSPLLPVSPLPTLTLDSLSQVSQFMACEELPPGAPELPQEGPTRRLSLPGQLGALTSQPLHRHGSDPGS

Row | SMILES | hERG current change (%, negative = inhibition) at 10uM [%]
1 | CCOc1ccccc1NC(=O)C1CC(=O)n2ncnc2N1 (stereo not shown) | -5.11
2 | Cc1ccccc1CN1CCC(n2nccc2NC(=O)CCOc2ccccc2)CC1 | -44.9
3 | Cn1ccnc1-c1nnn(-c2ccc(Cl)c(Cl)c2)n1 | 12.8
4 | Cc1cc(O)c(/C=N/Nc2ccccc2Cl)c(=O)o1 | 3.13
5 | O=C(NCCNC(=O)c1ccccc1O)c1ccccc1O | 13.6
6 | Cc1ccc(N(C)C(=O)CN(C)S(=O)(=O)c2ccc3c(c2)n(C)c(=O)c(=O)n3C)cc1 | -18.5
7 | CC(C)NC(=O)c1cccc(Br)c1 | -1.93
8 | COc1ccc(NC(C)=O)cc1NC(C)C(=O)Nc1ccccc1F (stereo not shown) | 7.35
9 | CCC1CCc2c(sc(NC(=O)c3cnccn3)c2C(N)=O)C1 (stereo not shown) | 18.5
10 | COc1ccc(N2CCOCC2)c(NC(=O)c2cccc3ccccc23)c1 | -8.88
11 | COc1ccc(-n2ncc3c2CC(C)(C)CC3NC(=O)c2oc(C)cc2C)cc1 (stereo not shown) | 15.2
12 | O=C(Nc1nnc(-c2ccccc2SCc2ccccc2F)s1)Nc1ccccc1F | 14.1
13 | COc1ccccc1CNC(=O)C1CCC(CNS(=O)(=O)c2ccc(F)cc2)CC1 (stereo not shown) | -8.17
14 | Cc1cc(C)cc(Nc2ncc3c(n2)CCCC3=O)c1 | -2.43
15 | Cc1ccc(S(=O)(=O)N2CCN(C(=O)NCc3ccc(C(=O)O)cc3)CC2)cc1 | -13
16 | CN(Cc1ccco1)C(=O)C(Cc1ccccc1)NS(=O)(=O)c1ccc2c(c1)CCC(=O)N2 (stereo not shown) | -37.5
17 | CCCCOCCCN1C(C)=CC(=C2C(=O)NC(=S)NC2=O)C=C1C | -4.13
18 | O=C(NCCOc1ccc(F)cc1)C1CCN(S(=O)(=O)c2ccccc2)CC1 | -21.1
19 | CC(C)c1ccc(-c2nc3ccccc3s2)cc1 | 25.5
20 | CC1(C)NC(=O)N(CC(=O)OCC(=O)Nc2cccc(F)c2)C1=O | -1.17

Row | SMILES | hERG current change (%, negative = inhibition) at 10uM [%]
21 | COC(=O)c1ccc(CSc2ncn[nH]2)o1 | 7.07
22 | CC(C)Oc1ccc(CNC(=O)CCC(=O)N2CC(C)Sc3ccccc32)cc1 (stereo not shown) | -33.5
23 | CCOC(=O)COc1ccsc1C(=O)OC | 3.59
24 | Cc1cc(C(=O)NCc2cccs2)n(-c2ccccc2)n1 | -7.89
25 | Cc1cc(NC(=O)CCC(=O)N(Cc2ccco2)C(C(=O)NC2CCCC2)c2ccc(F)cc2)no1 (stereo not shown) | -4.39
26 | O=C(c1cc(-c2ccc3c(c2)OCO3)on1)N1CCCCC1 | -3.9
27 | COc1ccc(/C=C2\CCc3ccccc3C2=O)cc1CN1CCOCC1 | -33.6
28 | COc1ccc(CN(CC(=O)NCc2ccco2)C(=O)CCC(=O)Nc2nccs2)cc1 | -25.3
29 | Cn1c(=O)n(CC(=O)NCC2CCCO2)c(=O)c2c3c(sc21)COC(C)(C)C3 (stereo not shown) | 5.08
30 | OCCC1CN(Cc2cccn2-c2cccnc2)CCN1Cc1ccc(F)cc1 (stereo not shown) | -56.9
31 | Cc1ccc(C(=O)NCC(=O)NCc2cc(=O)n(C)c(=O)n2C)cc1 | 25.6
32 | C=CCN1CCN(C(c2ccccc2)c2nnnn2CCC(C)C)CC1.Cl (stereo not shown) | -20.5
33 | COc1ccc(CNC(=O)c2cc(-n3cnnc3)ccc2Cl)cc1 | -18.4
34 | Cc1ccc(N(CC(=O)N/N=C/c2ccc(OCC(N)=O)cc2)S(C)(=O)=O)cc1Cl | 27.8
35 | CCN(C(=O)CSc1nc2ccccc2c(=O)n1-c1cccc(C)c1)C1CCS(=O)(=O)C1 (stereo not shown) | -14.9
36 | Cc1cc(NC(=O)CSc2nnnn2-c2ccc(F)cc2)no1 | 10.3
37 | Br.CCN(CC)CCN1Cc2ccccc2C1=N | -15
38 | COc1ccc([C@H]2CC(=O)C=C(c3ccc(CO)cc3)C2)cc1 | -4.98
39 | Cc1cc(C)n(CC(=O)NC2CCCN(Cc3ccc(Cl)cc3)C2)n1 (stereo not shown) | -9.19
40 | COc1ccc(CN2CCNC(=O)C2CC(=O)N(C)CC2CCOCC2)c(F)c1 (stereo not shown) | 16.1

Row | SMILES | hERG current change (%, negative = inhibition) at 10uM [%]
41 | NC(=O)/C(=C/c1cccnc1)NC(=O)c1ccccc1 | 12.8
42 | Cc1ccc2nc(-c3ccc(SCC(=O)Nc4nnc(C)s4)nc3)[nH]c2c1 | -16
43 | CN(C)C=O.CNC(=O)CSc1nc2nc(C)cc(C)n2n1 | 0.176
44 | CC1(C)c2[nH]c3ccccc3c2C[C@H]2C(=O)N(CCCCCO)CC(=O)N21 | 16.5
45 | COc1cc(/C=N/n2nnnc2N)ccc1O | -14.7
46 | COC(=O)C(C)Oc1ccc(Oc2nc(Cl)ccc2Cl)cc1 (stereo not shown) | -0.828
47 | O=C(CN1CCN(C(=O)c2c(F)cccc2F)CC1)Nc1ccccc1C(F)(F)F | -20.9
48 | O=C(c1ccccc1)c1coc2c1C(=O)c1ccccc1C2=O | 9.83
49 | Cc1cc(SCc2cccc(C(F)(F)F)c2)nc(=O)[nH]1 | 11.3
50 | O=C(NCCc1c[nH]c2ccccc12)c1ccc2[nH]c(=O)c(=O)[nH]c2c1 | 22
51 | Cc1ccc(NC(=O)COC(=O)c2ccc(S(=O)(=O)NCc3ccco3)cc2)cc1 | -4.52
52 | CCOC(=O)C1CCN(C(=O)c2ccco2)CC1 | 3.87
53 | CCOc1cccc2sc(=NC(=O)CCS(=O)(=O)c3ccc(F)cc3)n(C)c12 | -29.3
54 | COc1cc(CCCN2C(=S)NC[C@@H]2CCCCN)cc(OC)c1OC | 16
55 | O=C(Nc1ccc2c(c1)OCO2)Nc1ccccc1F | 5.17
56 | Cc1cc(NC(=O)Cc2ccsc2)ccc1Br | 15
57 | CCOC(=O)COc1cc(Br)c(/C=N/Nc2ccccc2)cc1OC | 1.43
58 | c1ccc(CCc2ccccc2-c2nc(-c3ccccn3)no2)cc1 | 17.1

— article PMC4336329 (PLoS ONE, 2015)
